In PubChem BioAssay AID493208 (National Center for Advancing Translational Sciences (NCATS), 2011):
Among all 44,000 compounds or so, about 340 (0.77%) were called active. Not shown: some 5% with an inconclusive outcome. Calls follow the shape of the dose curve; as a rule, active = well fitted inhibition curve with a large enough effect; inconclusive = small, poorly fitted or top-dose-only effect; inactive = flat fitted curve, though single readings scatter. Some of the results follow.

experiment: Acumen qHTS Assay for Inhibitors of the mTORC1 Signaling Pathway in MEF (Tsc2-/-, p53-/-) Cells: Sytravon; settings: phospho-rpS6 immunofluorescence/PI, 24 h; series mostly up to 38.3 µM; activity change, negative = inhibition: at the top concentration; also: nearly all actives have a fitted effect of over 50% in size;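 as to activity change, negative = inhibition: plate controls were DMSO for no effect and rapamycin for full effect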
Procedure, shortened: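 Immunofluorescence of rpS6 phosphorylation in Tsc2-/-, p53-/- MEFs after 24 h compound exposure, normalized to propidium iodide signal. Activity is expressed as % positive cells, thresholded with 7.5 nM rapamycin.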
Potency is read from the fitted curve at half-maximal effect.

Activity change, negative = inhibition, inactive:
COc1cccc(CNC(=O)Cn2c(=O)ccc3cc(S(=O)(=O)N4CCCC4)ccc32)c1 -4.1%
COc1ccc(Nc2nc3c(S(=O)(=O)c4ccccc4)nnn3c3ccc(Cl)cc23)cc1 -9.09%
CCN(CC)CCCNC(=O)c1cn(CC)c2ccc(S(=O)(=O)N3CCC(C)CC3)cc2c1=O -6.32%
O=C(O)c1ccc(NC(=O)c2ccc(Cl)c(S(=O)(=O)N3CCCCCC3)c2)cc1 2.43%
CN(C1CCCCC1)S(=O)(=O)c1ccc2c(c1)c(=O)c(C(=O)N1CCN(c3ccccc3)CC1)cn2C -1.09%
O=S(=O)(NCCS(=O)(=O)N1CCN(c2ccccc2)CC1)c1ccccc1 -1.45%
COC(=O)c1ccc(NC(=O)C(C)Sc2nc(=O)cc(N)n2CCc2ccccc2)cc1 (stereo unspecified) 0.183%
Cc1nc2c3ccccc3nc(NNC(=O)CCC(=O)O)n2n1 -2.68%
Cc1ccc(NC(=O)CN2C(=O)CCSc3ccccc32)c(C)c1 -4.34%
COc1ccc(CCNC(=O)c2ccc3c(c2)nc(C)n3-c2ccc(Br)cc2)cc1OC -3.19%
Cc1ccc(Cn2c(CO)cnc2SCc2ccc(F)cc2)cc1 -11.9%
O=C(Nc1ccc(Cl)cc1Cl)c1cc(S(=O)(=O)NCc2ccc3c(c2)OCO3)ccc1F 0.878%
Cc1ccccc1NC(=O)c1cc2c([nH]c1=O)CC(C)(C)CC2=O 0.962%
Cc1nn(CCC(=O)Nc2ccc(Cl)cc2)c(C)c1S(=O)(=O)N1CCCCC1 -0.845%
COc1ccc(-c2cc(C(=O)Nc3cc(C(F)(F)F)ccc3Cl)no2)cc1 -7.87%
COc1ccccc1Cn1cc(C(=O)c2ccccc2)c(=O)c2cc(OC)c(OC)cc21 -2.83%
CCOc1ccc(C(=O)Nc2ccc(-c3cc4ccccc4oc3=O)cc2)cc1Br 6.64%
CN(C)c1ccc(CNC(=O)C2CCN(c3nnc(-n4cccc4)s3)CC2)cc1 -13.5%
CCc1cccc(NC(=O)C2CCN(S(=O)(=O)c3ccc(Br)s3)CC2)c1 -11.1%
COc1cc(OC)c(NC(=O)C2=C(C)C(=O)OC23CCN(C(C)=O)CC3)cc1Cl -8.46%
Cc1ccc(-n2ncc3c(=O)n(Cc4cccc(Cl)c4)cnc32)cc1C -0.446%
Cc1ccc(CSc2nc3cccnc3n2Cc2ccc(C(=O)NC3CC3)cc2)cc1 -8.01%
O=C(NCc1ccccc1)c1cccn1-c1nnc(N2CCCCC2)s1 0%
Cc1ccc(C)c(NC(=O)Nc2cc3c(cc2N2CCCCC2)n(C)c(=O)n3C)c1 -12.3%
COc1ccc(Cn2c(C(=O)O)c(CNCc3ccco3)c3ccc(C)cc32)cc1 -18.5%
CCOc1ccccc1CNC(=O)c1cnn(-c2ccc(C)cc2)c1-n1cccc1 0.277%
COCCNC(=O)CSc1c(C)cnc2c1c(=O)n(C)c(=O)n2C 2.4%
Cc1ccc(NC(=O)Cn2cnc3c(oc4ccccc43)c2=O)cc1Cl 7.59%
COc1ccc(NC(=O)CCCOc2cc(=O)n(C)c3ccccc23)c(OC)c1 -0.396%
Cn1c(NCc2cccc(Cl)c2)nc2ccccc21 -3.63%
CCCn1c2ccccc2c2cnn(CC(=O)NCCc3ccc(S(N)(=O)=O)cc3)c(=O)c21 -5.26%
COc1ccccc1C(=O)Nc1nnc(SCc2cc(=O)c3ccccc3[nH]2)s1 3.34%
C=Cc1ccc(CN2C(=O)N(c3ccc(C)c(C)c3)S(=O)(=O)c3ccccc32)cc1 -0.563%
CCOc1ccc(NC(=O)c2cc3cc4ccc(C)cc4nc3o2)cc1 -0.108%
CCN(C(=O)c1ccc(C(=O)N(CC)c2ccccc2C)cc1)c1ccccc1C -1.37%
Brc1cccc(-c2nnn3c2nc(NC2CCCCC2)c2ccccc23)c1 -25.3%
Cc1ccc(-n2c(=O)c3ccc(C(=O)NCc4ccco4)cc3n(Cc3ccccc3Cl)c2=O)cc1 9.31%
CC1CCCCN1CCNC(=O)c1ccc(Cn2c(SCc3ccccc3)nc3cccnc32)cc1 (stereo unspecified) -10.7%
Cc1nn(-c2ccc(N3CCOCC3)nn2)c(C)c1CCC(=O)NCc1ccc(Cl)cc1 -6.22%
Cc1cccc(C)c1Nc1sc(C(=O)c2ccccc2)c(N)c1S(=O)(=O)c1ccccc1 -10.7%
COc1ccc2nc3sc(C(=O)NCCc4ccc(Cl)cc4)cc3cc2c1 6.81%
Cc1cc(O)c(C(c2ccccc2)N2CCC(C)CC2)c(=O)n1Cc1ccco1 (stereo unspecified) -4.63%
CCN(C(=O)c1sc2nc3n(c(=O)c2c1C)CCCC3)c1ccccc1F 7.55%
CC(=O)c1ccc(NC(=O)CSc2nnc3ccc(-c4ccc(F)cc4)nn23)cc1 -11.6%
Cc1ccc(CCNC(=O)c2cc(-c3ccccc3)n[nH]2)cc1 -13%
COc1ccc(CNC(=O)CCc2c(C)nn(-c3ccc(N4CCOCC4)nn3)c2C)c(OC)c1 -6.38%
Cc1cn2c(=O)cc(COc3ccc(NC(=O)c4ccc(C(C)(C)C)cc4)cc3)nc2s1 1.38%
CCC1=C(c2ccc(C)cc2)S(=O)(=O)N=C1N1CCC(C(=O)Nc2ccccc2C(=O)OC)CC1 -0.726%
Cc1cccc(NC(=O)C2CCCN2S(=O)(=O)c2cccc3nsnc23)c1C (stereo unspecified) -5.95%
CCOC(=O)c1ccc(NC(=O)CN2C(=O)C(C)(C)c3ccccc32)cc1 0.508%
CCCC12CN3CC(CCC)(CN(C1)C3c1ccc(OCc3ccccc3)cc1)C2=O (stereo unspecified) -6.25%
Cc1cccc(C)c1NC(=O)CCSc1nc(-c2ccc3c(c2)OCO3)cc(C(F)(F)F)n1 4.13%
Fc1ccccc1C(NCCc1ccc(Cl)cc1)c1nnc(-c2ccccc2)o1 (stereo unspecified) -24.6%
COc1ccccc1NC(=O)CN(C)S(=O)(=O)c1cccc2cccnc12 -11.1%
Cc1ccc(Nc2ccc(N3CCN(C(=O)c4cccc([N+](=O)[O-])c4)CC3)nn2)cc1 1.93%
Cc1cccc(NC(=O)c2cccc(N3CCCS3(=O)=O)c2)c1 0%
Cc1ccccc1NC(=O)Cn1c(=O)n(CCC(=O)N2CCc3ccccc3C2)c(=O)c2ccccc21 -3.22%
Cc1ccc(CNC(=O)CN2Cc3ccccc3C2=O)cc1 -1.67%
COc1ccc(NS(=O)(=O)c2cc(-c3onc(C)c3C)ccc2C)c(OC)c1 -17.8%
CCC1CN(C(=O)N2CCC(C(=O)NCCCc3ccccc3)CC2)c2cc(C)ccc2O1 (stereo unspecified) 9.67%

Potency, active:
CCS(=O)(=O)c1ncc(Cl)c(C(=O)Nc2ccc(S(=O)(=O)N(C)c3ccccc3)cc2)n1 414 nM
